In the supplement of paper PMC10126150:
Sequences with one replicate were seen in a single cluster, so their values are uncertain.
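Further: ATP exposure 15 min at 22 °C before imaging.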

The sequences below were run on ATP (assay: switch fluorescence ratio, 500 uM ATP over buffer (Cy3 cluster intensity, sum of 5 cycles each) (fold (ratio)); higher = stronger signal-on switching upon ATP binding; sequences stand for … in TCGTCGGCAGCGTCAGATGTGTATAAGAGACAGTTTTTTTTTTTTTTTTTTTTTTTTT…TC). Settings: aptamer strand: ATP DNA aptamer (quencher-CACCTGGGGGAGTATTGCGGAGGAAGG + anchor), 100 nM annealed; ATP concentration: 500 uM; one replicate.
Method in brief: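 Cy3-labelled switching-strand clusters on a modified Illumina MiSeq flow-cell were annealed to 100 nM quencher-labelled ATP aptamer, imaged in selection buffer, then imaged after 15 min with 500 uM ATP at 22 °C. Five buffer/ATP cycles ran, with NaOH stripping and re-annealing between them. The fluorescence ratio is summed target-cycle over summed buffer-cycle Cy3 intensity per cluster, averaged per switch-domain sequence. Clusters outside 100-1000 RFU were excluded.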
In the case of CAACCGGTAA, the switch fluorescence ratio is reported as 1.13.
With TCATTACAAG the switch fluorescence ratio was 0.986.
For CAGTTCTCGG, the switch fluorescence ratio was 1.03.
In the case of TGGCCCTTGC, the switch fluorescence ratio is reported as 1.07.
For TGATTTACCG, the switch fluorescence ratio was 1.08.
For CCTATAGTT, the switch fluorescence ratio was 1.07.
With CGGAACAGGG the switch fluorescence ratio was 1.
With GCGGTAG the switch fluorescence ratio was 0.99.
AGGTTAGCCT gave a switch fluorescence ratio of 0.973.
CGTACGTAAG was tested, and the switch fluorescence ratio was 1.03.
TGCTCTACAT was tested, and the switch fluorescence ratio was 1.03.
In the case of GGGGTTACGA, the switch fluorescence ratio is reported as 1.02.
GGATATTGGA showed a switch fluorescence ratio of 1.04.
With GAAAAAGCTC the switch fluorescence ratio was 0.978.
With TGGCATCTGG the switch fluorescence ratio was 0.973.
ATCAGAGCAG showed a switch fluorescence ratio of 1.04.
For ACATAGGTTC, the switch fluorescence ratio was 1.03.
Sequence GAGTGCGTTT has a switch fluorescence ratio of 0.977.
TGAATATCAC showed a switch fluorescence ratio of 1.12.
Work on AGACAAAGTC yielded a switch fluorescence ratio of 1.03.
GATATGGTTG showed a switch fluorescence ratio of 0.978.
In the case of AATAATCCTT, the switch fluorescence ratio is reported as 0.974.
With ACGTCAACAT the switch fluorescence ratio was 1.35.
TTTAAGTACC gave a switch fluorescence ratio of 1.55.
CGGAGCCTTC showed a switch fluorescence ratio of 1.76.
CTGTGCTGG gave a switch fluorescence ratio of 0.996.
Work on CCACGGCATT yielded a switch fluorescence ratio of 1.99.
With CTTGAAGCGG the switch fluorescence ratio was 1.02.
Work on GGTGATGCGT yielded a switch fluorescence ratio of 0.951.
For ATGTCCTAG, the switch fluorescence ratio was 1.
CAGATACGAC gave a switch fluorescence ratio of 1.51.
ATGACGAGCT showed a switch fluorescence ratio of 1.17.
In the case of TGATGCTGAG, the switch fluorescence ratio is reported as 1.
With ATCCGTTAGT the switch fluorescence ratio was 0.988.
TGATTACGGT was tested, and the switch fluorescence ratio was 1.02.
With GGCGGTATCC the switch fluorescence ratio was 0.978.
With GCCGATATCC the switch fluorescence ratio was 1.04.
In the case of GGGGCCATTG, the switch fluorescence ratio is reported as 1.01.
With GCTGTTGGAC the switch fluorescence ratio was 1.09.
In the case of TCACGTGCGG, the switch fluorescence ratio is reported as 0.989.
ATTTAATGGC was tested, and the switch fluorescence ratio was 1.09.
Sequence CGATCCAACC has a switch fluorescence ratio of 1.05.
ACCTTATAGA gave a switch fluorescence ratio of 1.04.
Sequence GGTTTACAGG has a switch fluorescence ratio of 0.975.
Sequence ATGGTGGGCC has a switch fluorescence ratio of 1.03.
ACCAAATTGG gave a switch fluorescence ratio of 0.971.
For ACCCATTTGC, the switch fluorescence ratio was 0.958.
TACGAGCTAT gave a switch fluorescence ratio of 1.52.
With TACTTTGAA the switch fluorescence ratio was 0.943.
For GAAATGTCCA, the switch fluorescence ratio was 1.
TATGTATTCG gave a switch fluorescence ratio of 1.06.
For TACTTATAAA, the switch fluorescence ratio was 1.03.
Work on TCCCCACATG yielded a switch fluorescence ratio of 1.04.
CTATTGTAGA was tested, and the switch fluorescence ratio was 1.
GCGTTATAGT was tested, and the switch fluorescence ratio was 1.02.
GTGTGACGA showed a switch fluorescence ratio of 0.98.
In the case of TTCAAAAGTG, the switch fluorescence ratio is reported as 0.967.
In the case of CTTTGGATGA, the switch fluorescence ratio is reported as 0.994.
Sequence GCGCCGGAGT has a switch fluorescence ratio of 1.03.
AGTAAAAGGT showed a switch fluorescence ratio of 0.949.
For TGATCTTTAT, the switch fluorescence ratio was 0.972.
TATAGTGTAT gave a switch fluorescence ratio of 1.05.
Sequence GACACCATGC has a switch fluorescence ratio of 1.23.
CGAGCGGATT gave a switch fluorescence ratio of 1.06.
Sequence TTGGGACCAG has a switch fluorescence ratio of 0.996.
TTCTGTTTCG showed a switch fluorescence ratio of 0.998.
With AAAGTAACCC the switch fluorescence ratio was 0.967.
With GCCTTGTTGA the switch fluorescence ratio was 0.986.
With CCTACCCCGT the switch fluorescence ratio was 1.01.
For CAGGGCGAGG, the switch fluorescence ratio was 1.01.
In the case of CCTTGCCGA, the switch fluorescence ratio is reported as 1.09.
ATAGAGCATT gave a switch fluorescence ratio of 1.03.
Sequence GGGTTACAAG has a switch fluorescence ratio of 1.04.
For ATGTTGAATC, the switch fluorescence ratio was 1.02.
TTACAATACA gave a switch fluorescence ratio of 1.19.
TCTAACTAC gave a switch fluorescence ratio of 1.04.
GCCGGGT was tested, and the switch fluorescence ratio was 1.14.
Sequence GAGGTCCCGC has a switch fluorescence ratio of 1.04.
With AGTATCCAGG the switch fluorescence ratio was 1.08.
Sequence CAACCGTCG has a switch fluorescence ratio of 1.07.
ATTTTGACGG gave a switch fluorescence ratio of 1.04.
AAGACAGATT showed a switch fluorescence ratio of 1.01.
Work on GTTTTATATA yielded a switch fluorescence ratio of 0.993.
Sequence ACGAGTGAGT has a switch fluorescence ratio of 1.02.
For CTTAGGGAAG, the switch fluorescence ratio was 1.01.
In the case of ATGCTCCAGC, the switch fluorescence ratio is reported as 1.02.
Sequence CATAAGTGAT has a switch fluorescence ratio of 1.02.
Sequence TATTACGTA has a switch fluorescence ratio of 1.2.
With ATTTTTCACC the switch fluorescence ratio was 1.05.
TGTCCACACG was tested, and the switch fluorescence ratio was 1.02.
For TTGAGGGTAC, the switch fluorescence ratio was 1.08.
With AGACATGTAC the switch fluorescence ratio was 1.15.
CGTTAACGAA gave a switch fluorescence ratio of 1.01.
ATCCAACTTT was tested, and the switch fluorescence ratio was 1.02.
CATTACCCCT was tested, and the switch fluorescence ratio was 1.15.
In the case of ATATCACACA, the switch fluorescence ratio is reported as 1.08.
GATGGCCGCA gave a switch fluorescence ratio of 1.04.
In the case of ACCTTTTCGC, the switch fluorescence ratio is reported as 1.58.
For AGCCGGATAA, the switch fluorescence ratio was 1.01.
With CTAATCACAA the switch fluorescence ratio was 1.03.
Work on AGGCTATTAA yielded a switch fluorescence ratio of 0.991.
With AGAAACGTCC the switch fluorescence ratio was 1.45.
Sequence TATGAATGGC has a switch fluorescence ratio of 0.957.
For ACGGAAAGAA, the switch fluorescence ratio was 0.967.
GGGTTAGCCC gave a switch fluorescence ratio of 0.999.
ATACTGGGCG showed a switch fluorescence ratio of 1.06.
GAGCTGGGCA was tested, and the switch fluorescence ratio was 0.988.
In the case of TTTGTAGAAA, the switch fluorescence ratio is reported as 1.02.
GAGGAGACTA was tested, and the switch fluorescence ratio was 0.963.
Sequence CCAGTTGGCC has a switch fluorescence ratio of 0.992.
ATACGATAA showed a switch fluorescence ratio of 1.14.
In the case of ATTCCCTTTT, the switch fluorescence ratio is reported as 1.06.
CGCCCGTGGG gave a switch fluorescence ratio of 1.03.
Work on TTTTACGATC yielded a switch fluorescence ratio of 1.04.
GAAGAACGGA was tested, and the switch fluorescence ratio was 1.02.
Sequence TGTTCCAGAT has a switch fluorescence ratio of 0.966.
For TGGGCTGGAC, the switch fluorescence ratio was 1.63.
Work on CTGCGACGGG yielded a switch fluorescence ratio of 1.03.
In the case of TGCCTGTC, the switch fluorescence ratio is reported as 1.49.
TACCCTCAGC was tested, and the switch fluorescence ratio was 1.17.
Work on TTCGCTACCG yielded a switch fluorescence ratio of 0.996.
For GTAAACGTTG, the switch fluorescence ratio was 0.962.
For AACACAGATG, the switch fluorescence ratio was 1.01.
With GCTGGGGCTA the switch fluorescence ratio was 1.02.
For AACTGTTCGC, the switch fluorescence ratio was 0.973.
With GACGCCAACA the switch fluorescence ratio was 1.41.
Sequence TGTGGGATCC has a switch fluorescence ratio of 0.995.
For ATCTGAATT, the switch fluorescence ratio was 1.06.
For AATTGAATGG, the switch fluorescence ratio was 0.99.
Work on ACAAGGTCT yielded a switch fluorescence ratio of 0.987.
GAGGACGAGT was tested, and the switch fluorescence ratio was 1.
For TTGAAAAGTG, the switch fluorescence ratio was 1.26.
Sequence AGTGAGAAGC has a switch fluorescence ratio of 0.985.
In the case of AGGAAATTGA, the switch fluorescence ratio is reported as 1.01.
With ACCTCTTTAG the switch fluorescence ratio was 0.963.
Work on CCAAAAGC yielded a switch fluorescence ratio of 1.12.
Sequence CTCAACTGGT has a switch fluorescence ratio of 1.04.
GGGCAGATTG showed a switch fluorescence ratio of 0.996.
For TCCGCTTAGA, the switch fluorescence ratio was 1.53.
TCTCTTTTAG showed a switch fluorescence ratio of 1.04.
In the case of GTGACCAAGT, the switch fluorescence ratio is reported as 1.01.
Work on TCGTGCGATA yielded a switch fluorescence ratio of 1.16.
In the case of GTAATGACCG, the switch fluorescence ratio is reported as 1.17.
TTATGTTTTC was tested, and the switch fluorescence ratio was 1.47.
Sequence TATATCCGA has a switch fluorescence ratio of 1.
For ATCCTTTGGG, the switch fluorescence ratio was 0.99.
Work on TCTACAAAGA yielded a switch fluorescence ratio of 0.993.
With GATATAGCCC the switch fluorescence ratio was 1.
With CTAACCGGCA the switch fluorescence ratio was 1.13.
Work on CTAAATAGT yielded a switch fluorescence ratio of 1.04.
With CAAACGGGGC the switch fluorescence ratio was 1.07.
Sequence ATTAATTTAA has a switch fluorescence ratio of 0.984.
Sequence GGGGTGCGC has a switch fluorescence ratio of 1.
GCGGCCCGTT gave a switch fluorescence ratio of 1.02.
For AGGGTTGGCG, the switch fluorescence ratio was 0.971.
In the case of ATTCGGTTTA, the switch fluorescence ratio is reported as 1.01.
With ACGAGCTTAG the switch fluorescence ratio was 1.11.
Work on GACAAGAATG yielded a switch fluorescence ratio of 0.994.
